At least one read-out could not be matched to a standard name with certainty.
Tests used:
Type in all cases: cell-based
[1] = tested on: Acinetobacter baumannii expressing TEM-1, AmpC, and Oxa-24/40 (CL6188); details: lowest concentration inhibiting 95% of bacterial growth; BLi relebactam 4 μg/mL; 35±2° C., 22 hours; OD600
[2] = tested on: Escherichia coli expressing NDM-1 (CLB30016); assay: Growth inhibitory concentration (OD600), E. coli CLB30016, with relebactam; details: lowest concentration inhibiting 95% of bacterial growth, BLi relebactam 4 μg/mL, 35±2° C., 22 hours
[3] = tested on: Pseudomonas aeruginosa expressing AmpC (CL5701); assay: Growth inhibitory concentration (OD600), P. aeruginosa CL5701, with relebactam; details: lowest concentration inhibiting 95% of bacterial growth, BLi relebactam 4 μg/mL, 35±2° C., 22 hours

SMILES | AB—CL6188 MITC95 [1] | EC—CLB30016 MITC95 [2] | PA—CL5701 MITC95 [3]
CC1(C)[C@H](NC(=O)/C(=N\O[C@](C)(C(=O)O)[C@H]2CCc3cc(C(=N)NCC[C@H]4CCNC4)ccc3O2)c2csc(N)n2)C(=O)N1OS(=O)(=O)O [Compound 41, (S)-2-((((Z)-1-(2-aminothiazol-4-yl)-2-(((S)-2,2-dimethyl-4-oxo-1-(sulfooxy)azetidin-3-yl)amino)-2-oxoethylidene)-amino)oxy)-2-((R)-6-(N-(2-((R)-pyrrolidin-3-yl)ethyl)-carbamimidoyl)chroman-2-yl)propanoic acid] | 25 µM | 25 µM | 12.5 µM
CC1(C)[C@H](NC(=O)/C(=N\O[C@](C)(C(=O)O)[C@H]2CCc3cc(C(=N)NCCC4CNC4)ccc3O2)c2csc(N)n2)C(=O)N1OS(=O)(=O)O [Compound 42, (S)-2-((((Z)-1-(2-aminothiazol-4-yl)-2-(((S)-2,2-dimethyl-4-oxo-1-(sulfooxy)azetidin-3-yl)amino)-2-oxo-ethylidene)amino)oxy)-2-((R)-6-(N-(2-(azetidin-3-yl)-ethyl)-carbamimidoyl)chroman-2-yl)propanoic acid] | 3.125 µM | 6.25 µM | 1.563 µM
CC1(CCNC(=N)c2ccc3c(c2)CC[C@H]([C@](C)(O/N=C(\C(=O)N[C@@H]2C(=O)N(OS(=O)(=O)O)C2(C)C)c2csc(N)n2)C(=O)O)O3)CNC1 [Compound 43, (S)-2-((((Z)-1-(2-aminothiazol-4-yl)-2-(((S)-2,2-dimethyl-4-oxo-1-(sulfooxy)azetidin-3-yl)amino)-2-oxoethylidene)-amino)oxy)-2-((R)-6-(N-(2-(3-methylazetidin-3-yl)ethyl)-carbamimidoyl)chroman-2-yl)propanoic acid] | 6.25 µM | 6.25 µM | 1.563 µM
CC1(C)[C@H](NC(=O)/C(=N\O[C@](C)(C(=O)O)[C@H]2CCc3cc(C(=N)NCC[C@@H]4CCN4)ccc3O2)c2csc(N)n2)C(=O)N1OS(=O)(=O)O [Compound 44, (S)-2-((((Z)-1-(2-aminothiazol-4-yl)-2-(((S)-2,2-dimethyl-4-oxo-1-(sulfooxy)azetidin-3-yl)amino)-2-oxoethylidene)-amino)oxy)-2-((R)-6-(N-(2-((S)-azetidin-2-yl)ethyl)-carbamimidoyl)chroman-2-yl)propanoic acid] | 3.125 µM | 3.125 µM | 1.563 µM
CC1(C)[C@H](NC(=O)/C(=N\O[C@](C)(C(=O)O)[C@H]2CCc3cc(C(=N)NCC[C@H]4CCN4)ccc3O2)c2csc(N)n2)C(=O)N1OS(=O)(=O)O [Compound 45, (S)-2-((((Z)-1-(2-aminothiazol-4-yl)-2-(((S)-2,2-dimethyl-4-oxo-1-(sulfooxy)azetidin-3-yl)amino)-2-oxo-ethylidene)amino)oxy)-2-((R)-6-(N-(2-((R)-azetidin-2-yl)ethyl)-carbamimidoyl)chroman-2-yl)propanoic acid] | 3.125 µM | 6.25 µM | 1.563 µM
CC1(C)[C@H](NC(=O)/C(=N\O[C@](C)(C(=O)O)[C@H]2CCc3cc(C(=N)NCCO[C@H]4CCNC4)ccc3O2)c2csc(N)n2)C(=O)N1OS(=O)(=O)O [Compound 50, (S)-2-((((Z)-1-(2-aminothiazol-4-yl)-2-(((S)-2,2-dimethyl-4-oxo-1-(sulfooxy)azetidin-3-yl)amino)-2-oxoethylidene)amino)oxy)-2-((R)-6-(N-(2-(((S)-pyrrolidin-3-yl)oxy)ethyl)carbamimidoyl)chroman-2-yl)propanoic Acid] | 12.5 µM | 6.25 µM | 1.563 µM
CC1(C)[C@H](NC(=O)/C(=N\O[C@](C)(C(=O)O)[C@H]2CCc3cc(C(=N)NC[C@H]4CCN[C@@H](CO)C4)ccc3O2)c2csc(N)n2)C(=O)N1OS(=O)(=O)O [Compound 51, (S)-2-((((Z)-1-(2-aminothiazol-4-yl)-2-(((S)-2,2-dimethyl-4-oxo-1-(sulfooxy)azetidin-3-yl)amino)-2-oxoethylidene)amino)oxy)-2-((R)-6-(N-(((2R,4S)-2-(hydroxymethyl)-piperidin-4-yl)methyl)carbamimidoyl)chroman-2-yl)propanoic acid] | 6.25 µM | 12.5 µM | 1.563 µM
CC1(C)[C@H](NC(=O)/C(=N\O[C@](C)(C(=O)O)[C@H]2CCc3cc(C(=N)NC[C@@H]4CCN[C@H](CO)C4)ccc3O2)c2csc(N)n2)C(=O)N1OS(=O)(=O)O [Compound 52, (S)-2-((((Z)-1-(2-aminothiazol-4-yl)-2-(((S)-2,2-dimethyl-4-oxo-1-(sulfooxy)azetidin-3-yl)amino)-2-oxoethylidene)amino)oxy)-2-((R)-6-(N-(((2S,4R)-2-(hydroxymethyl)-piperidin-4-yl)methyl)carbamimidoyl)chroman-2-yl)propanoic acid] | 9.375 µM | 6.25 µM | 2.344 µM
CC1(C)[C@H](NC(=O)/C(=N\O[C@](C)(C(=O)O)[C@H]2CCc3cc(C(=N)NC[C@@H]4CCN[C@@H](CO)C4)ccc3O2)c2csc(N)n2)C(=O)N1OS(=O)(=O)O [Compound 53, (S)-2-((((Z)-1-(2-aminothiazol-4-yl)-2-(((S)-2,2-dimethyl-4-oxo-1-(sulfooxy)azetidin-3-yl)amino)-2-oxoethylidene)amino)oxy)-2-((R)-6-(N-(((2R,4R)-2-(hydroxymethyl)-piperidin-4-yl)methyl)carbamimidoyl)chroman-2-yl)propanoic acid] | 6.25 µM | 6.25 µM | 1.563 µM
CC1(C)[C@H](NC(=O)/C(=N\O[C@](C)(C(=O)O)[C@H]2CCc3cc(C(=N)NC[C@H]4CCN[C@H](CO)C4)ccc3O2)c2csc(N)n2)C(=O)N1OS(=O)(=O)O [Compound 54, (S)-2-((((Z)-1-(2-aminothiazol-4-yl)-2-(((S)-2,2-dimethyl-4-oxo-1-(sulfooxy)azetidin-3-yl)amino)-2-oxoethylidene)amino)oxy)-2-((R)-6-(N-(((2S,4S)-2-(hydroxymethyl)-piperidin-4-yl)methyl)carbamimidoyl)chroman-2-yl)propanoic acid] | 4.688 µM | 4.688 µM | 1.563 µM
CC1(C)[C@H](NC(=O)/C(=N\O[C@](C)(C(=O)O)[C@H]2CCc3cc(C(=N)NC[C@H]4C[C@H]4CN)ccc3O2)c2csc(N)n2)C(=O)N1OS(=O)(=O)O [Compound 55, (S)-2-((R)-6-(N-(((1S,2R)-2-(aminomethyl)cyclopropyl)methyl)carbamimidoyl)chroman-2-yl)-2-((((Z)-1-(2-aminothiazol-4-yl)-2-(((S)-2,2-dimethyl-4-oxo-1-(sulfooxy)azetidin-3-yl)amino)-2-oxoethylidene)amino)oxy)propanoic acid] | 3.125 µM | 6.25 µM | 1.563 µM
CC1(C)[C@H](NC(=O)/C(=N\O[C@](C)(C(=O)O)[C@H]2CCc3cc(C(=N)NC[C@@H]4C[C@@H]4CN)ccc3O2)c2csc(N)n2)C(=O)N1OS(=O)(=O)O [Compound 56, (S)-2-((R)-6-(N-(((1R,2S)-2-(aminomethyl)cyclopropyl)methyl)carbamimidoyl)chroman-2-yl)-2-((((Z)-1-(2-aminothiazol-4-yl)-2-(((S)-2,2-dimethyl-4-oxo-1-(sulfooxy)azetidin-3-yl)amino)-2-oxoethylidene)amino)oxy)propanoic acid] | 3.125 µM | 3.125 µM | 1.563 µM
CC1(C)[C@H](NC(=O)/C(=N\O[C@](C)(C(=O)O)[C@H]2CCc3cc(C(=N)NC[C@H]4CC[C@@](C)(N)CC4)ccc3O2)c2csc(N)n2)C(=O)N1OS(=O)(=O)O [Compound 57, (S)-2-((R)-6-(N-(((1s,4S)-4-amino-4-methylcyclohexyl)methyl)carbamimidoyl)chroman-2-yl)-2-((((Z)-1-(2-aminothiazol-4-yl)-2-(((S)-2,2-dimethyl-4-oxo-1-(sulfooxy)azetidin-3-yl)amino)-2-oxoethylidene)amino)oxy)propanoic acid] | 6.25 µM | 3.125 µM | 3.125 µM
CC1(C)[C@H](NC(=O)/C(=N\O[C@](C)(C(=O)O)[C@H]2CCc3cc(C(=N)NC[C@H]4CC[C@](C)(N)CC4)ccc3O2)c2csc(N)n2)C(=O)N1OS(=O)(=O)O [Compound 58, (S)-2-((R)-6-(N-(((1r,4R)-4-amino-4-methylcyclohexyl)methyl)carbamimidoyl)chroman-2-yl)-2-((((Z)-1-(2-aminothiazol-4-yl)-2-(((S)-2,2-dimethyl-4-oxo-1-(sulfooxy)azetidin-3-yl)amino)-2-oxoethylidene)amino)oxy)propanoic acid] | 6.25 µM | 6.25 µM | 3.125 µM
COCCC1(CNC(=N)c2ccc3c(c2)CC[C@H]([C@](C)(O/N=C(\C(=O)N[C@@H]2C(=O)N(OS(=O)(=O)O)C2(C)C)c2csc(N)n2)C(=O)O)O3)CCNCC1 [Compound 59, (S)-2-((((Z)-1-(2-aminothiazol-4-yl)-2-(((S)-2,2-dimethyl-4-oxo-1-(sulfooxy)azetidin-3-yl)amino)-2-oxoethylidene)amino)oxy)-2-((R)-6-(N-((4-(2-methoxyethyl)piperidin-4-yl)methyl)carbamimidoyl)chroman-2-yl)propanoic Acid] | 6.25 µM | 6.25 µM | 6.25 µM
